Reference: PubChem BioAssay AID1963576 (National Center for Advancing Translational Sciences (NCATS), 2024)
About 60 (0.1%) of roughly 46,000 compounds were called active. About 3% were inconclusive and are not listed. The call rests on the fitted dose curve; in most records, active means well fitted inhibition curve with a large enough effect; inconclusive means small, poorly fitted or top-dose-only effect; inactive means no such curve, though single readings can be large or run the other way. The list shows a part of the results.

experiment: Primary qHTS assay for Inhibitors of ovarian cancer metastasis using an organotypic tumor microenvironment (TME) model.; further: nearly all actives have a fitted effect of over 65% in size;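 on activity change, negative = inhibition: plate controls were DMSO wells for no effect and tomatine positive control wells for full effect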; settings: SKOV3ip1-GFP adhesion/invasion on 3D omental model, fluorescence; series mostly up to 45.8 µM; activity change, negative = inhibition: at the top concentration
In short: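 qHTS, 4-pt dose (0.36-46 umol/L); SKOV3ip1-GFP, 1,200 cells/well, no FBS; primary omental fibroblast/mesothelial co-culture 48 h pre-grown; 2 h RT + 16 h 37 C; PBS wash, 4% PFA; GFP count 488/509 nm.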

Row | SMILES | activity change, negative = inhibition | outcome
1 | CCOC(=O)N1CCc2c(sc(NCc3ccc(OCC)cc3)c2C(=O)Nc2ccc(OC)cc2OC)C1 | inactive: 0.319% | 
2 | COc1cc(NC(=O)CN(C)S(=O)(=O)c2ccc3[nH]c4c(c3c2)CCCC4)cc(OC)c1OC |  | inactive
3 | COc1ccc(OC2CCN(S(=O)(=O)c3ccc(OC)cc3)CC2)cc1 | inactive: -18.2% | 
4 | Clc1ccc(-c2noc3ncnc(NCCCN4CCN(c5ccccc5)CC4)c23)cc1 | inactive: 3.46% | 
5 | CCn1cc(C(=O)O)c(=O)c2cc(F)c(N3CCNCC3)nc21 | inactive: -31.7% | 
6 | Cc1cc(NC(=O)CSc2nc3c([nH]c4ccccc43)c(=O)n2-c2cccc(Cl)c2)no1 |  | inactive
7 | CCOC(=O)C1CCCN(C(=O)C2CCN(c3nnc(C)c4c(C)n(-c5ccccc5)nc34)CC2)C1 (stereo not drawn) | inactive: 3.49% | 
8 | COc1ccccc1C(=O)NCc1ccc2c(c1)CCN2C(=O)c1ccncc1 | inactive: 6.42% | 
9 | CCc1ccc(CNC(=O)C(CC)n2ccc3cc(S(=O)(=O)N4CCCCC4)ccc32)cc1 (stereo not drawn) | inactive: -3.09% | 
10 | Cc1ccc(C)c(N2CCN(C(=O)C3CCN(S(=O)(=O)c4cn(C)cn4)CC3)CC2)c1 | inactive: 8.75% | 
11 | CCc1ccccc1Nc1nn2c(=O)c3ccc(C(=O)NCc4cccs4)cc3nc2s1 | inactive: -19.3% | 
12 | COc1ccc(N2CCN(C(=O)C3CCN(S(=O)(=O)c4cnc[nH]4)CC3)CC2)cc1 | inactive: -23.2% | 
13 | COc1ccccc1C(=O)NCc1ccc2c(c1)CCN2C(=O)c1cccc(C)c1 |  | inactive
14 | CCOC(=O)Cn1c(=O)oc2cc(S(=O)(=O)Nc3cc(OC)cc(OC)c3)ccc21 |  | inactive
15 | Cc1cccc(C(=O)Nc2cccc(C(=O)OCc3cc(=O)n4c5c(sc4n3)CCCC5)c2)c1 | inactive: -2.72% | 
16 | CN1CCN(C(c2ccc(F)cc2)c2sc3nc(-c4ccco4)nn3c2O)CC1 (stereo not drawn) | inactive: -5.96% | 
17 | CCn1c(C)c(C)c2cc(C(=O)NCCc3cc(OC)c(OC)c(OC)c3)ccc21 | inactive: -1.65% | 
18 | CCc1ccc(S(=O)(=O)c2nnn3c2nc(NCc2cccs2)c2sccc23)cc1 | inactive: 23.4% | 
19 | COc1ccc(Cn2c(C(=O)O)c(CNCc3cccs3)c3ccc(C)cc32)cc1 | inactive: -20.3% | 
20 | O=C(Nc1ccccc1F)C(Cc1ccccc1)n1cccc1 (stereo not drawn) |  | inactive
21 | COc1ccc(-c2c3c(=O)n(C)c(=O)n(C)c3c3c(-c4ccccc4)nc4ccccc4n23)cc1 |  | inactive
22 | COc1cc(OC)cc(-c2nc3nc(C)c(CCC(=O)Nc4ccc(Cl)cc4)c(C)n3n2)c1 | inactive: -8.56% | 
23 | COc1cccc(C(=O)Nc2ccc3oc(-c4ccc5ccccc5c4)nc3c2)c1 | inactive: -10.8% | 
24 | O=C(Nc1ccc2nc(SCC(=O)N3CCOCC3)sc2c1)c1ccc(F)cc1 |  | inactive

Row | SMILES | activity change, negative = inhibition | outcome
25 | Cc1cc(C)c(Nc2nn3c(=O)c4cc5c(cc4nc3s2)OCO5)c(C)c1 | inactive: 1.57% | 
26 | CCN(CC)S(=O)(=O)c1ccc2c(c1)N(CC(=O)NCCCN1CCN(c3ccccc3F)CC1)C(=O)CO2 | inactive: 14.1% | 
27 | Cc1ccc2[nH]c(=O)c3cc(C(=O)N4CCN(c5ccccc5)CC4)sc3c2c1 |  | inactive
28 | Cc1cccc(C(=O)Nc2sc3c(c2C(=O)NCc2ccco2)CCCC3)c1 | inactive: -6.58% | 
29 | COc1cccc(NC(=O)NCc2ccc3c(c2)CCN3C(=O)c2ccccc2)c1 | inactive: -4.02% | 
30 | CCOc1ccc(CCNC(=O)CCc2c(C)nc3c4c(C)cc(C)nc4nn3c2C)cc1 | inactive: -8.81% | 
31 | COc1ccccc1C1C=C(c2ccc(F)cc2)Nc2nc(-c3ccc(Cl)cc3)nn21 (stereo not drawn) | inactive: 2.76% | 
32 | COC(=O)c1sccc1S(=O)(=O)N1CCN(c2ccccc2)CC1 |  | inactive
33 | CCOC(=O)c1scc(-c2ccccc2)c1S(=O)(=O)Nc1ccccc1F | inactive: -4.08% | 
34 | CCc1nn(-c2ccccc2)c2nc(-c3ccccc3OC)c3cc(OC)c(OC)cc3c12 |  | inactive
35 | CCCc1nn2c(=O)cc(COC(=O)c3cccc(NC(=O)COc4ccc(F)cc4)c3)nc2s1 | inactive: 5.87% | 
36 | CC(C)c1ccc(C2N3CC4(C)CN2CC(c2ccccc2)(C3)C4=O)cc1 (stereo not drawn) | inactive: 6.98% | 
37 | CCc1ccc(NC(=O)c2cc(C(C)=O)n3ccccc23)cc1 | inactive: -26.7% | 
38 | Cc1ccccc1NC(=O)c1ccc(F)c(S(=O)(=O)N(C)Cc2ccccc2)c1 |  | inactive
39 | O=C(Cn1c(=O)oc2cc(S(=O)(=O)N3CCCCC3)ccc21)Nc1cccc(Cl)c1 | inactive: -10.8% | 
40 | Cc1nc(-c2ccc(Cl)cc2)sc1CCNC(=O)C(=O)Nc1ccc(F)cc1F | inactive: 3.72% | 
41 | O=C(O)c1cc(NC2(c3ccccc3)C(=O)c3ccccc3C2=O)ccc1Cl | inactive: 11.8% | 
42 | Cc1cc(C)c(Cn2c3ccccc3c3cnn(CC(=O)NC4CCC(C)CC4)c(=O)c32)c(C)c1 (stereo not drawn) | inactive: -10.4% | 
43 | Cc1cccc(NC(=O)CCCn2c(C)c3cnn(-c4ccccc4)c(=O)c3c2C)c1C |  | inactive
44 | Cc1ccccc1-n1c(SCC(=O)Nc2ccc(Cl)cc2F)nnc1-c1cc2occc2n1C | inactive: -7.93% | 
45 | Cc1ccc(Cn2c(C(=O)O)c(CNCc3ccccc3Cl)c3ccc(C)cc32)cc1 |  | inactive
46 | CCc1ccc(NC(=O)CN2CCN(Cc3ccccc3)S2(=O)=O)cc1 | inactive: 1.69% | 
47 | Cc1oc2c(c(C)cc3oc(=O)c(CC(=O)NCCc4ccccc4F)c(C)c32)c1C |  | inactive
48 | CCOC(=O)C1CCN(c2ncnc3c2c(-c2ccccc2)cn3-c2cccc(C)c2)CC1 |  | inactive
